Test results from PubChem BioAssay AID1159614 (National Center for Advancing Translational Sciences (NCATS), 2016).
In all, about 45,000 compounds went through this assay and about 65 (0.1%) were called active. The call rests on the fitted dose curve; in most records, active means well fitted activation curve with a large enough effect; inconclusive means small, poorly fitted or top-dose-only effect; inactive means no such curve, though single readings can be large or run the other way. Some of the results follow.

The compounds below were run against Galactocerebrosidase (Homo sapiens) (UniProt P54803) (assay: A Novel Cell-Based Assay to Identify Small Molecules for B -Galactocerebrosidase). Details: 145M-Twi-hGALC-G270D cells (Twitcher mouse brain line with human GALC G270D), HMU-beta-Gal fluorescence, 48 h; series mostly up to 57.5 µM; activation: at the top concentration.
UniProt P54803, sequence (P54803 whole entry, looked up): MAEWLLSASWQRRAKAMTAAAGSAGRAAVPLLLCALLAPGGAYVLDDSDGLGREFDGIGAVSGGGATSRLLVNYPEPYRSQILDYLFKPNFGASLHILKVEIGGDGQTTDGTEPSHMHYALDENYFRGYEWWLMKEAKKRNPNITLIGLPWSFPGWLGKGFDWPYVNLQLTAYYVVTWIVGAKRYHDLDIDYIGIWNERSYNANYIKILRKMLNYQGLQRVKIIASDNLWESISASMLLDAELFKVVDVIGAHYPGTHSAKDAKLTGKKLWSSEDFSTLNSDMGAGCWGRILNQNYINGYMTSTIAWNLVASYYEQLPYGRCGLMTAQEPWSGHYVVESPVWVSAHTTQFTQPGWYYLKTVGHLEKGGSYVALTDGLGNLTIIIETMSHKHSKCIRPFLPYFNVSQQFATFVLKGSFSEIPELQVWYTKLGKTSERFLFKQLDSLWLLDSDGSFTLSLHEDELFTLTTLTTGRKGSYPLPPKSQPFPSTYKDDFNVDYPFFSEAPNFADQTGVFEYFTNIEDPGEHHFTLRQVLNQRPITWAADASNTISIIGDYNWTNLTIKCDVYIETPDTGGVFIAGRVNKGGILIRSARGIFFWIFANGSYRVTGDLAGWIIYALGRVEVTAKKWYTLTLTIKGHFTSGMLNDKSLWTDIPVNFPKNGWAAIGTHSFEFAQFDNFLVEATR
How it was run: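 Fluorogenic HMU-b-Gal hydrolysis (0.1 mM final, pH 5.2 citrate-phosphate with 1 mg/mL sodium taurocholate; carbonate stop buffer) measures mutant GALC activity after compound treatment of live 145M-Twi Twitcher brain cells stably carrying human GALC-G270D, with wild-type GALC line alongside; activation sought.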
Further: nearly all actives have a fitted effect of over 65% in size.
Potency means the concentration at half of the fitted maximal effect.
Wherever activation is given: 0% is about no effect.

| Structure (SMILES) | activation | Potency |
| --- | --- | --- |
| CSc1ccc(CCNC(=O)Cn2nc(C)n3c(cc4sccc43)c2=O)cc1 | inactive: -13.8% | – |
| Cn1c(=O)c2c(nc(SCC(=O)Nc3ccccc3F)n2Cc2ccccc2F)n(C)c1=O | inactive: -14.6% | – |
| COc1ccc(CNC(=O)C(=O)NCC(c2ccco2)S(=O)(=O)c2ccc(Cl)cc2)cc1 (stereo unspecified) | inactive: -39.1% | – |
| CCOC(=O)c1cccc(NC(=O)Cn2ncc3c(=O)oc4ccccc4c32)c1 | inactive: -18.7% | – |
| CCOc1ccccc1Nc1sc(C(=O)c2ccccc2)c(N)c1C(=O)Nc1ccc(F)cc1 | inactive: 17.8% | – |
| Cc1ccc(Cn2ccnc2SCC(=O)NCc2ccccc2)cc1 | inactive: -13.3% | – |
| CC(C)COc1ccc(C(=O)N2CCCCC2CCN2CCOCC2)cc1 (stereo unspecified) | inactive: -5.68% | – |
| COc1ccc(OC)c(CCNC(=O)c2nc(-c3ccc(Cl)cc3)n3c2CCCCC3)c1 | inactive: -24.9% | – |
| COc1cccc(NC(=O)Cn2c(=O)oc3cc(S(=O)(=O)N4CCCCC4)ccc32)c1 | inactive: -45.4% | – |
| Cc1ccc(C(=O)c2oc3ccccc3c2NC(=O)COc2ccc(Cl)c(C)c2)cc1 | inactive: -9.3% | – |
| Cc1c(C)n(Cc2ccc(Cl)cc2)c2ccc(C(=O)N3CCN(c4ccccc4F)CC3)cc12 | inactive: -15.2% | – |
| Cc1ccc(C(=O)CSc2nc(C)cc(C)c2C(=O)Nc2cccc(C)c2)cc1 | inactive: -13.1% | – |
| COc1cccc(CNC(=O)C2CCCN(c3nnc(-n4c(C)ccc4C)s3)C2)c1OC (stereo unspecified) | inactive: -12.6% | – |
| CSc1nn(Cc2ccc(F)cc2)c(N(C(C)=O)C(C)=O)c1S(=O)(=O)c1ccccc1 | inactive: 10% | – |
| CCc1cccc(CC)c1NC(=O)CN(C)S(=O)(=O)c1ccc2c(c1)n(C)c(=O)c(=O)n2C | inactive: -12% | – |
| CCC(=O)N1CCc2cc(Br)cc(S(=O)(=O)N3CCCC(C(=O)NCc4ccc(C)cc4)C3)c21 (stereo unspecified) | inactive: -9.31% | – |
| Cc1ccc(-n2c3nc(=O)n(C)c(=O)c-3cc3ccccc32)c(C)c1 | inactive: 12.6% | – |
| O=C(Nc1ccc(OC(F)(F)F)cc1)c1cc(-c2ccc(Cl)cc2)on1 | inactive: -9.17% | – |
| Cc1nc2c3ccccc3nc(NNC(=O)CCC(=O)N3CCN(c4ccc(F)cc4)CC3)n2n1 | inactive: -10.8% | – |
| CC(=O)N1CCCc2ccc(NC(=O)c3ccc(OC(C)C)cc3)cc21 | inactive: -3.32% | – |
| Cc1ccc2nc(COc3ccccc3NC(=O)Nc3ccc(F)c(Cl)c3)cc(=O)n2c1 | inactive: -11.2% | – |

| Structure (SMILES) | activation | Potency |
| --- | --- | --- |
| Cc1cccc(NC(=O)CSc2cn(CC(=O)N3CCOCC3)c3ccccc23)c1C | inactive: -5.74% | – |
| CCSc1nc(-c2ccc(OC)cc2)nc2c1Cc1c(CO)cnc(C)c1O2 | inactive: -8.11% | – |
| Cc1ccc2c(=O)cc(C(=O)Nc3c(C)cccc3C)oc2c1 | inactive: -13.2% | – |
| CCc1ccc(NC(=O)Cn2ncn3c(cc4ccccc43)c2=O)cc1 | inactive: -10.2% | – |
| CCCCN(Cc1cc2cc(C)ccc2[nH]c1=O)C(=O)c1cccc(Cl)c1 | inactive: -5.14% | – |
| Cc1cc2c(cc1S(=O)(=O)NCc1ccc(F)cc1)OCCN2C | inactive: -10.4% | – |
| COc1ccc(S(=O)(=O)c2c(Nc3cccc(Cl)c3)sc(C(=O)c3ccccc3)c2N)cc1 | inactive: -9.16% | – |
| COc1cccc2cc(-c3nc4sc5c(c4c(=O)[nH]3)CCC(C(C)(C)C)C5)c(=O)oc12 (stereo unspecified) | inactive: -5.27% | – |
| COc1ccc(/C=C/c2nc(C#N)c(N3CCCCC3)o2)cc1OC | – | active: 28.2 µM |
| COCCN(CCOC)S(=O)(=O)c1ccc(C(=O)Nc2sc3c(c2C(N)=O)CCCC3)cc1 | inactive: -14.1% | – |
| Cc1cccc(-c2nc(SCc3cc(=O)c4c(C)cc(C)cc4[nH]3)n[nH]2)c1 | inactive: -1.4% | – |
| CCCn1c(=N)c(C(=O)NCC2CCCO2)cc2c(=O)n3cc(C)ccc3nc21 (stereo unspecified) | – | active: 12.6 µM |
| Cc1ccc(Cl)cc1-n1ncc2c(NCCc3ccccc3)ncnc21 | inactive: -19.8% | – |
| COc1cccc(NC(=O)Cn2nc(N3CCN(c4ccccc4)CC3)ccc2=O)c1 | inactive: -10.7% | – |
| CCCNC(=O)c1ccc2c(c1)N=C(CCC)c1ccccc1S2 | inactive: -5.77% | – |
| Cc1cccc(CSc2cn(CC(=O)N3CCOCC3)c3ccccc23)c1 | inactive: -3.27% | – |
| O=C(Cn1ncc2c3ccccc3n(Cc3ccccc3)c2c1=O)NCCc1ccc(Cl)cc1 | inactive: -15.7% | – |
| COc1ccc(S(=O)(=O)N2CCC(c3nc4ccccc4s3)CC2)cc1OC | inactive: -23% | – |
| CCCCNc1nc2c(S(=O)(=O)c3ccc(Br)cc3)nnn2c2ccsc12 | inactive: -7.33% | – |
| Cc1ccc(NC(=O)Cn2c(=O)n(Cc3nc(-c4ccccc4)no3)c(=O)c3ccccc32)c(C)c1 | inactive: -10.1% | – |
| COc1ccc(C(=O)c2ccccc2O)c(O)c1 | inactive: -22.3% | – |

| Structure (SMILES) | activation | Potency |
| --- | --- | --- |
| Cc1ccc(OCC(=O)Nc2ccc(OCc3cc(=O)n4ccsc4n3)cc2)cc1C | inactive: -7.33% | – |
| CCC(=O)N1CCc2cc(S(=O)(=O)NC(Cc3ccccc3)C(=O)NCc3ccccc3)ccc21 (stereo unspecified) | inactive: -8.08% | – |
| CCN(C(=O)CN1C(=O)c2ccccc2Sc2ccc(C(=O)OC)cc21)c1cccc(C)c1 | inactive: -7.53% | – |
| Cc1nn(C(C)C(=O)NCc2ccc(OC(C)C)cc2)c(=O)c2c1sc1ccccc12 (stereo unspecified) | inactive: -19.3% | – |
| Cc1ccc(C(=O)N(Cc2ccc(N(C)C)cc2)CC2CCCO2)cc1 (stereo unspecified) | inactive: -3.9% | – |
| COc1ccccc1NC(=O)c1c(-c2ccc(C)cc2)nnc2ccccc12 | inactive: -20.8% | – |
| CC(CCc1ccccc1)NC(=O)CSc1n[nH]c(-c2ccccc2)n1 (stereo unspecified) | inactive: -9.85% | – |
| CCCCNC(=O)CCC(=O)NNc1nc2ccccc2c2nc(C)nn12 | inactive: -11.8% | – |
| Cc1ccc2ccc3cc(C(=O)N4CCN(c5ccccc5F)CC4)nc3c2[nH]1 | inactive: -19.4% | – |
| Cc1ccc(Nc2c(-c3ccccn3)nc3ccc(Br)cn23)cc1 | inactive: -8.92% | – |
| O=C(NCc1cccs1)c1ccc2c(c1)sc1nc(-c3ccc(F)cc3)cn12 | inactive: -13.1% | – |
| O=C(Nc1cc(Cl)ccc1Cl)c1ccc2c(c1)N(Cc1cccc(Cl)c1)C(=O)c1ccccc1S2=O (stereo unspecified) | inactive: -22.6% | – |
| COc1ccc(N2CCN(C(=O)Nc3cn(CC(C)C)c(=O)c4ccccc34)CC2)cc1 | inactive: -26.9% | – |
| Cc1ccc2oc(C(=O)Nc3c(C(=O)Nc4cccc(Cl)c4)oc4ccccc34)cc(=O)c2c1 | inactive: -18.1% | – |
| Cc1nn(-c2ccccc2)c(OC(=O)c2ccccc2)c1S(=O)(=O)c1ccccc1 | inactive: -7.14% | – |
| COc1c(Cl)cc(C(=O)Nc2cc(-c3nc4ccccc4[nH]3)ccc2C)cc1Cl | inactive: -0.667% | – |
| CCOC(=O)CSc1nc2ccccc2c(=O)n1-c1ccc(C(=O)NCCOC)cc1 | inactive: -17.3% | – |
| Cc1ccc(N2C(=O)CS(=O)(=O)C23C(=O)Nc2ccccc23)cc1C (stereo unspecified) | inactive: -21.9% | – |
| O=C(Nc1ccccc1C(F)(F)F)N1CCOc2ccc(Cl)cc21 | inactive: -8.21% | – |
